# Some of the results follow. Values were computed here from the reads of four pooled replicates and scatter widely.
# Target: T1, Pho4 (S. cerevisiae) (UniProt P07270)
# T1 sequence: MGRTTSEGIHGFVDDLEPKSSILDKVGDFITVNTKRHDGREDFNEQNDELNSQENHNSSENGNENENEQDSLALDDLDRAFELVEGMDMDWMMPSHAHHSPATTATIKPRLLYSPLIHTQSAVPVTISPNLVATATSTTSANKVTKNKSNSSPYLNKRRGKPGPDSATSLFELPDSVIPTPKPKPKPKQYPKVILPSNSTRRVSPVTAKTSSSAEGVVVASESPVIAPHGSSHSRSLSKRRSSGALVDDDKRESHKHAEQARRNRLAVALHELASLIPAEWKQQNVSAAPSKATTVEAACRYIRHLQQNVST
# Experiment: relative binding free energy (BET-seq); higher = weaker binding
# Conditions: reference: library average
row,Sequence,relative binding free energy
1,TGTTCCACGTGATAGG,0.1 kcal/mol
2,AGTTTCACGTGCTTGC,0.28 kcal/mol
3,TCATTCACGTGTAGGC,0.3 kcal/mol
4,GCGCTCACGTGGTGTT,0.09 kcal/mol
5,ATTATCACGTGAATAA,0.37 kcal/mol
6,CTAGGCACGTGGGCTG,-0.17 kcal/mol
7,TTAGGCACGTGATCTT,-0.02 kcal/mol
8,TTGGTCACGTGCTAGT,0.08 kcal/mol
9,TGAGACACGTGATGGC,0.26 kcal/mol
10,TTTGCCACGTGTTGTG,-0.17 kcal/mol
11,GGGAACACGTGCTGGA,0.01 kcal/mol
12,TATGGCACGTGGAGGT,-0.1 kcal/mol
13,GCGTACACGTGGTGGC,0.17 kcal/mol
14,CAGCGCACGTGGGGGC,-0.21 kcal/mol
15,GCTGTCACGTGGGAGA,0.1 kcal/mol
16,TTGGTCACGTGCAGTC,0.26 kcal/mol
17,CATGGCACGTGGTTTA,-0.19 kcal/mol
18,TGTATCACGTGATATG,0.27 kcal/mol
19,TTTGGCACGTGATGTT,0.03 kcal/mol
20,AGGAACACGTGTGTCT,0.13 kcal/mol
21,AGTATCACGTGTAAAG,0.17 kcal/mol
22,TTGTCCACGTGAGTAG,0.24 kcal/mol
23,GGAGACACGTGGTGAA,0.04 kcal/mol
24,GCCGTCACGTGGGTTG,-0.02 kcal/mol
25,GTCGGCACGTGGGTAA,-0.2 kcal/mol
26,CGTTTCACGTGAAGAG,0.24 kcal/mol

row,Sequence,relative binding free energy
1,GGTTGCACGTGGTGAC,-0.01 kcal/mol
2,TCGTTCACGTGGGGGA,0.13 kcal/mol
3,ATGGCCACGTGGAGGA,-0.06 kcal/mol
4,TTCGGCACGTGAGGCG,0.1 kcal/mol
5,GTAGCCACGTGGTAGT,-0.16 kcal/mol
6,CGTGACACGTGATTGT,0.06 kcal/mol
7,ATGAACACGTGGTTAT,0.06 kcal/mol
8,CAAGACACGTGTGGGG,0.11 kcal/mol
9,TGGGACACGTGGTAGC,-0.07 kcal/mol
10,CTTGTCACGTGGTTGG,-0.03 kcal/mol
11,GTAATCACGTGTTTGA,0.07 kcal/mol
12,CGGGTCACGTGATTGT,0.22 kcal/mol
13,GTGAGCACGTGAAGGG,0.15 kcal/mol
14,GACGTCACGTGGTTAT,0.13 kcal/mol
15,ATTCGCACGTGCTGGG,-0.16 kcal/mol
16,GGCGACACGTGTTGAG,0.08 kcal/mol
17,GCACGCACGTGGGGTT,-0.19 kcal/mol
18,ATGGTCACGTGTTTAC,0.17 kcal/mol
19,ATGAACACGTGGGGAA,-0.11 kcal/mol
20,TTAATCACGTGGTGAT,0.01 kcal/mol
21,TTATCCACGTGGTTTA,-0.03 kcal/mol
22,TGTACCACGTGCGTGG,-0.24 kcal/mol
23,GCGAGCACGTGGGGCG,-0.2 kcal/mol
24,TGACGCACGTGGGTGT,-0.36 kcal/mol
25,ATGGTCACGTGTTTGA,0.09 kcal/mol
26,AGACTCACGTGTGGGG,0.31 kcal/mol

row,Sequence,relative binding free energy
1,TAGTACACGTGTTAGG,0.07 kcal/mol
2,TTTGGCACGTGTTCAG,-0.08 kcal/mol
3,AAGTTCACGTGGGAAT,0.24 kcal/mol
4,GATTACACGTGTTTCT,0.23 kcal/mol
5,TGAGACACGTGATGTG,0.17 kcal/mol
6,GTCGTCACGTGGGGAT,0.14 kcal/mol
7,AAGGGCACGTGTTTTC,-0.11 kcal/mol
8,TTGTGCACGTGTCGTG,-0.04 kcal/mol
9,TAAGGCACGTGAGCGT,0.01 kcal/mol
10,TTAAACACGTGTTCGG,-0.03 kcal/mol
11,ATGTTCACGTGTTGAG,0.43 kcal/mol
12,TAATCCACGTGGGGTG,-0.12 kcal/mol
13,ATGAGCACGTGGTTGG,-0.11 kcal/mol
14,ATAGTCACGTGGTGTA,-0.06 kcal/mol
15,GGATGCACGTGAGAGA,0.19 kcal/mol
16,ACTTACACGTGAGTGG,0.2 kcal/mol
17,GTTTACACGTGTGTTC,0.06 kcal/mol
18,TGTTACACGTGTGCTG,0.15 kcal/mol
19,GTTGACACGTGCAATG,0.17 kcal/mol
20,GGTTACACGTGTTTTA,0.22 kcal/mol
21,GTCGGCACGTGACGGT,0.13 kcal/mol
22,CCGGTCACGTGGGGGG,-0.09 kcal/mol
23,TGCTGCACGTGATTTG,0.13 kcal/mol
24,TTGTTCACGTGATTTC,0.47 kcal/mol
25,TTCTACACGTGTTTGG,0.05 kcal/mol
26,AGGCACACGTGGGGTA,-0.09 kcal/mol

row,Sequence,relative binding free energy
1,AAAGGCACGTGGGAAG,-0.21 kcal/mol
2,TCGGGCACGTGGTCGG,-0.16 kcal/mol
3,GGGCACACGTGGAAGT,0.2 kcal/mol
4,GTTCTCACGTGATATG,0.25 kcal/mol
5,GTGAGCACGTGTATGC,-0.15 kcal/mol
6,TAGAACACGTGGTGCG,-0.04 kcal/mol
7,GCTGACACGTGGTTTG,-0.08 kcal/mol
8,AAGGTCACGTGGAGCG,-0.05 kcal/mol
9,GTGGACACGTGATGGT,0.14 kcal/mol
10,TCTGGCACGTGGCGGG,-0.1 kcal/mol
11,ATGTTCACGTGTCGTC,0.34 kcal/mol
12,CTGGTCACGTGAGGAT,0.37 kcal/mol
13,TTTGTCACGTGGTGGT,0.09 kcal/mol
14,TGACGCACGTGGGGTC,-0.32 kcal/mol
15,GGGAGCACGTGATCTG,0.09 kcal/mol
16,CTTGACACGTGGGGTC,-0.11 kcal/mol
17,AGGGACACGTGTATAG,-0.04 kcal/mol
18,GTCGTCACGTGAGGGC,0.34 kcal/mol
19,GCTTGCACGTGGGGCG,-0.21 kcal/mol
20,TAGAGCACGTGTGGTG,-0.05 kcal/mol
21,GGGGTCACGTGTAGCA,0.12 kcal/mol
22,CTGTTCACGTGGAGCT,0.28 kcal/mol
23,TTGACCACGTGGGGTA,-0.23 kcal/mol
24,GGGGTCACGTGGGCGA,0.01 kcal/mol
25,TTTAACACGTGTCGTG,-0.09 kcal/mol
26,TAGATCACGTGTTAAA,0.27 kcal/mol

row,Sequence,relative binding free energy
1,ATTCGCACGTGTATTT,-0.03 kcal/mol
2,GAATGCACGTGATGTG,0.12 kcal/mol
3,TTCTGCACGTGAGGTG,0.2 kcal/mol
4,TAGGACACGTGATTTT,0.1 kcal/mol
5,GGTCTCACGTGTATGA,0.22 kcal/mol
6,CATGGCACGTGGGAGT,-0.17 kcal/mol
7,TTGTCCACGTGTCGGT,0.07 kcal/mol
8,GGTCGCACGTGTAAAG,0.06 kcal/mol
9,AGAGGCACGTGCGCTT,-0.06 kcal/mol
10,GGAGGCACGTGGGGCA,-0.28 kcal/mol
11,TTGTTCACGTGAATTT,0.45 kcal/mol
12,GGTGTCACGTGTGCGC,0.25 kcal/mol
13,GTAATCACGTGTTTGT,0.21 kcal/mol
14,GGTTGCACGTGATGCT,0.22 kcal/mol
15,CTGGGCACGTGATTAG,-0.18 kcal/mol
16,GATTGCACGTGTATGA,0.03 kcal/mol
17,CTCGTCACGTGTGGTA,0.1 kcal/mol
18,AATGCCACGTGTGGTG,-0.08 kcal/mol
19,ATAATCACGTGGCGTG,0.09 kcal/mol
20,AAGTTCACGTGAGATG,0.4 kcal/mol
21,ATTTGCACGTGCTGGC,-0.02 kcal/mol
22,TTATCCACGTGTGGAT,-0.02 kcal/mol
23,GAAAACACGTGTAGGT,0.22 kcal/mol
24,TAGGGCACGTGATCGG,-0.09 kcal/mol
25,TGATTCACGTGAAAGG,0.38 kcal/mol
26,AAGTGCACGTGGTATA,-0.2 kcal/mol

row,Sequence,relative binding free energy
1,TGATGCACGTGGACAG,-0.02 kcal/mol
2,GAGGTCACGTGTAAGA,0.29 kcal/mol
3,GGGTGCACGTGGTCGA,-0.07 kcal/mol
4,ATTATCACGTGCATGT,-0.07 kcal/mol
5,CGGAGCACGTGGTCGT,-0.09 kcal/mol
6,GCGTGCACGTGTAGTA,-0.05 kcal/mol
7,TGTTTCACGTGTCTAG,0.21 kcal/mol
8,TTGTTCACGTGGTCCT,0.16 kcal/mol
9,AGTGGCACGTGGTGAA,-0.2 kcal/mol
10,AATGTCACGTGCTGGG,0.14 kcal/mol
11,AGAGGCACGTGGTGGG,-0.17 kcal/mol
12,TTCGGCACGTGGCAAG,-0.17 kcal/mol
13,AAATACACGTGTATGT,0 kcal/mol
14,TGATGCACGTGGTTCA,-0.09 kcal/mol
15,TTGAGCACGTGGGTAA,-0.13 kcal/mol
16,AGTTACACGTGTGATT,0.13 kcal/mol
17,GGCGTCACGTGTGAAG,0.23 kcal/mol
18,GTGGACACGTGCCTGG,0.11 kcal/mol
19,TGTGACACGTGACTGT,0.02 kcal/mol
20,TTACGCACGTGGAGTA,-0.05 kcal/mol
21,TTTAGCACGTGCGGGG,-0.12 kcal/mol
22,AAAGTCACGTGGAGTA,0.11 kcal/mol
23,GTTTACACGTGGTAGT,0.25 kcal/mol
24,CTGTACACGTGGTTGA,-0.01 kcal/mol
25,ATCTACACGTGGGAGG,0.1 kcal/mol
26,CGGTGCACGTGGCTGT,-0.08 kcal/mol

row,Sequence,relative binding free energy
1,TTATTCACGTGTGTTT,0.28 kcal/mol
2,AGAGTCACGTGATGGG,0.18 kcal/mol
3,TGTCGCACGTGTGGTG,-0.04 kcal/mol
4,GCCTGCACGTGTGGTG,-0.01 kcal/mol
5,GAAGGCACGTGAAGAG,0.33 kcal/mol
6,TTGAGCACGTGTTTGT,-0.02 kcal/mol
7,GTTCTCACGTGATTTT,0.36 kcal/mol
8,GGATACACGTGGGCTT,-0.06 kcal/mol
9,CAATGCACGTGGTGTG,-0.21 kcal/mol
10,GCCGTCACGTGGAGTG,0.17 kcal/mol
11,AATGTCACGTGTCTTG,0.2 kcal/mol
12,GAATTCACGTGTTGTG,0.25 kcal/mol
13,ATGATCACGTGCTATT,0.14 kcal/mol
14,GTGTTCACGTGTGCGC,0.29 kcal/mol
15,AGTGGCACGTGTAAGC,0.07 kcal/mol
16,TTACACACGTGTTGGG,-0.07 kcal/mol
17,TTAGACACGTGGGTTG,-0.04 kcal/mol
18,ATAGGCACGTGATTAT,0.01 kcal/mol
19,GCTTCCACGTGTGGTG,0.25 kcal/mol
20,GAATGCACGTGAGGTG,0.23 kcal/mol
21,AGTGGCACGTGTGTAA,-0.26 kcal/mol
22,TGTATCACGTGGGATG,0.03 kcal/mol
23,TCGGACACGTGGTCGG,0.03 kcal/mol
24,TTGTTCACGTGGTGCT,0.21 kcal/mol
25,ATTCTCACGTGTCTTG,0.23 kcal/mol
26,GGGCTCACGTGTAGCT,0.33 kcal/mol

row,Sequence,relative binding free energy
1,AGAAGCACGTGAGGCT,0.29 kcal/mol
2,TGATACACGTGTCATG,0.02 kcal/mol
3,AGTTGCACGTGAGAAA,0.22 kcal/mol
4,GTATACACGTGCTTGG,0.02 kcal/mol
5,CTATTCACGTGGGTGG,0.02 kcal/mol
6,GATAACACGTGATGTG,-0.05 kcal/mol
7,TTGATCACGTGAGGAT,0.38 kcal/mol
8,TAGAGCACGTGGACGG,-0.04 kcal/mol
9,TATTGCACGTGTCGTT,0.1 kcal/mol
10,AAGAGCACGTGTGGTG,-0.17 kcal/mol
11,GAGGACACGTGGCGTT,0.1 kcal/mol
12,GAATGCACGTGGGTAA,-0.02 kcal/mol
13,AGGTACACGTGAAGGT,0.3 kcal/mol
14,AGAGTCACGTGGTGTG,0.1 kcal/mol
15,CGAGTCACGTGAGGTT,0.28 kcal/mol
16,ATGGGCACGTGGGATG,-0.16 kcal/mol
17,AATATCACGTGTGAGA,0.2 kcal/mol
18,TCTTGCACGTGAGGCT,0.14 kcal/mol
19,TACTTCACGTGGTATT,0.18 kcal/mol
20,CTTATCACGTGTAGTT,0.14 kcal/mol
21,ATGAGCACGTGATCGG,0 kcal/mol
22,TAATTCACGTGGGCGC,0.26 kcal/mol
23,TAGTCCACGTGGGTGG,-0.15 kcal/mol
24,TGTCACACGTGTTGCG,0.03 kcal/mol
25,TTAAGCACGTGGTGTC,-0.21 kcal/mol
26,GGGAGCACGTGATGGT,-0.01 kcal/mol

row,Sequence,relative binding free energy
1,ATATGCACGTGGGAAT,-0.12 kcal/mol
2,ATGTTCACGTGTATGC,0.08 kcal/mol
3,GGAAGCACGTGCGTGG,-0.4 kcal/mol
4,GAGAGCACGTGGTTTA,-0.11 kcal/mol
5,TATGTCACGTGACGTA,0.08 kcal/mol
6,AATGTCACGTGGGTTA,-0.03 kcal/mol
7,GTTTCCACGTGAGGTG,0.39 kcal/mol
8,GGAGTCACGTGTGGCA,0.17 kcal/mol
9,ATGGACACGTGCGTGC,0.11 kcal/mol
10,ATTTTCACGTGTGGAC,0.34 kcal/mol
11,GGTGGCACGTGTAAAT,0.21 kcal/mol
12,GGTAGCACGTGAGGAT,0.24 kcal/mol
13,TGCTTCACGTGTTGAT,0.16 kcal/mol
14,TTATTCACGTGTGTTA,0.24 kcal/mol
15,GGGCACACGTGGTATT,0.11 kcal/mol
16,TGGCGCACGTGCGGGA,-0.25 kcal/mol
17,AGTAGCACGTGCTGTT,-0.17 kcal/mol
18,GGTATCACGTGGTTGA,0.06 kcal/mol
19,TGATTCACGTGGGGGG,0.14 kcal/mol
20,GGTGTCACGTGAGTGC,0.32 kcal/mol
21,GGTACCACGTGGTGGA,-0.09 kcal/mol
22,CGTATCACGTGGTGAA,0.08 kcal/mol
